Results as given in the supplement of paper PMC8007513.
Structures can show the parent of a compound that is named as a salt. ± gives the standard error. Out of some 1,300 compounds screened, about 130 (10%) showed an effect of 50% or more. The list shows a part of the results, in another mix than the full data.

Test system: Trichoderma virens ATCC 9645
Assay: growth yield (OD600) with compound + IPBC relative to untreated control; higher = less growth inhibition
Conditions: compound concentration: 100 uM, IPBC concentration: 200 ng/ml
How it was run: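 A biocide at 200 ng ml^−1 was co-applied to some wells, and library compounds were present in all test wells at 100 μM final. The wells held 100 μl of Trichoderma virens ATCC 9645 spores at 15,000 spores ml^−1 in potato dextrose broth, grown at 30 °C in 96-well plates, with OD600 read at 40 h and 72 h. Results are relative growth against the control without either agent, averaged across duplicate screens.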

Row | Structure (SMILES) | growth yield (40 h) [%] | growth yield (72 h) [%]
1 | NC(=O)C(c1ccccc1)(c1ccccc1)[C@@H]1CCN(CCc2ccc3c(c2)CCO3)C1 [Darifenacin hydrobromide] + CCCCNC(=O)OCC#CI [3-iodo-2-propynyl butylcarbamate (IPBC)] | 80.4 ± 4.1 | 88.9 ± 1.1
2 | COc1ccccc1OCC(O)CN1CCN(CC(=O)Nc2c(C)cccc2C)CC1 (stereo unspecified) [Ranolazine] + CCCCNC(=O)OCC#CI [3-iodo-2-propynyl butylcarbamate (IPBC)] | 89.7 ± 2.4 | 94.2 ± 2.7
3 | COc1cc([C@@H]2c3cc4c(cc3[C@@H](O[C@@H]3O[C@@H]5CO[C@@H](C)O[C@H]5[C@H](O)[C@H]3O)[C@H]3COC(=O)[C@H]23)OCO4)cc(OC)c1O [Etoposide] + CCCCNC(=O)OCC#CI [3-iodo-2-propynyl butylcarbamate (IPBC)] | 82.4 ± 7.8 | 94.3 ± 2.8
4 | C[C@H]1C[C@@H]2[C@H]([C@@H](O)C[C@@]3(C)[C@H]2CC[C@]3(O)C(=O)CO)[C@@]2(C)C=CC(=O)C=C12 [Methylprednisolone, 6-alpha] + CCCCNC(=O)OCC#CI [3-iodo-2-propynyl butylcarbamate (IPBC)] | 90.4 ± 12 | 98.9 ± 9.3
5 | CC(C)NCC(O)c1ccc2ccccc2c1 (stereo unspecified) [Pronethalol hydrochloride] + CCCCNC(=O)OCC#CI [3-iodo-2-propynyl butylcarbamate (IPBC)] | 92 ± 1.8 | 95.3 ± 1.8
6 | Nc1nc2n[nH]nc2c(=O)[nH]1 [Azaguanine-8] + CCCCNC(=O)OCC#CI [3-iodo-2-propynyl butylcarbamate (IPBC)] | 7.47 ± 1.1 | 12.2 ± 0.21
7 | CN(C)c1nc(N(C)C)nc(N(C)C)n1 [Altretamine] + CCCCNC(=O)OCC#CI [3-iodo-2-propynyl butylcarbamate (IPBC)] | 81.8 ± 1.1 | 88.6 ± 0.94
8 | CN(C)C(=O)Oc1cc(OC(=O)N(C)C)cc(C(O)CNC(C)(C)C)c1 (stereo unspecified) [Bambuterol hydrochloride] + CCCCNC(=O)OCC#CI [3-iodo-2-propynyl butylcarbamate (IPBC)] | 96.9 ± 11 | 103 ± 5.2
9 | CC[C@H]1OC(=O)[C@H](C)[C@@H](O[C@H]2C[C@@](C)(OC)[C@@H](O)[C@H](C)O2)[C@H](C)[C@@H](O[C@@H]2O[C@H](C)C[C@H](N(C)C)[C@H]2O)[C@](C)(O)C[C@@H](C)[C@@H]2N[C@@H](COCCOC)O[C@H]([C@H]2C)[C@]1(C)O [Dirithromycin] + CCCCNC(=O)OCC#CI [3-iodo-2-propynyl butylcarbamate (IPBC)] | 89 ± 9.5 | 94.9 ± 6.4
10 | O=C1CC2(CCCC2)CC(=O)N1CCCCN1CCN(c2ncccn2)CC1 [Buspirone hydrochloride] + CCCCNC(=O)OCC#CI [3-iodo-2-propynyl butylcarbamate (IPBC)] | 106 ± 3.6 | 104 ± 1.3
11 | CCn1cc(C(=O)O)c(=O)c2cc3c(cc21)OCO3 [Oxolinic acid] + CCCCNC(=O)OCC#CI [3-iodo-2-propynyl butylcarbamate (IPBC)] | 88.2 ± 2.1 | 94.8 ± 3.1
12 | C[C@]12CC[C@H](O)C[C@@H]1CC[C@@H]1[C@@H]2CC[C@]2(C)C(=O)CC[C@@H]12 [Epiandrosterone] + CCCCNC(=O)OCC#CI [3-iodo-2-propynyl butylcarbamate (IPBC)] | 75.9 ± 1.6 | 93.5 ± 1.5
13 | CCC1(c2ccc(N)cc2)CCC(=O)NC1=O (stereo unspecified) [Glutethimide, para-amino] + CCCCNC(=O)OCC#CI [3-iodo-2-propynyl butylcarbamate (IPBC)] | 111 ± 4.1 | 112 ± 4.5
14 | CC1Cc2ccccc2N1NC(=O)c1ccc(Cl)c(S(N)(=O)=O)c1 (stereo unspecified) [Indapamide] + CCCCNC(=O)OCC#CI [3-iodo-2-propynyl butylcarbamate (IPBC)] | 87.2 ± 0.16 | 95.4
15 | CCN(C)C(=O)Oc1cccc([C@H](C)N(C)C)c1 [Rivastigmine] + CCCCNC(=O)OCC#CI [3-iodo-2-propynyl butylcarbamate (IPBC)] | 97.1 ± 4 | 95.1 ± 3.7
16 | Nc1ccc(S(=O)(=O)Nc2ccnn2-c2ccccc2)cc1 [Sulfaphenazole] + CCCCNC(=O)OCC#CI [3-iodo-2-propynyl butylcarbamate (IPBC)] | 95.5 ± 2.4 | 99.53 ± 0.1
17 | CC[C@@]1([C@@H]2O[C@@H]([C@H]3O[C@@](O)(CO)[C@H](C)C[C@@H]3C)C[C@@H]2C)CC[C@H]([C@]2(C)CC[C@]3(C[C@H](O)[C@@H](C)[C@@H]([C@@H](C)[C@@H](OC)[C@H](C)C(=O)O)O3)O2)O1 [Monensin sodium salt] + CCCCNC(=O)OCC#CI [3-iodo-2-propynyl butylcarbamate (IPBC)] | 79.4 ± 9.8 | 89.6 ± 9.2
18 | CCN1CCN(c2cc3c(cc2F)c(=O)c(C(=O)O)cn3C2CC2)CC1 [Enrofloxacin] + CCCCNC(=O)OCC#CI [3-iodo-2-propynyl butylcarbamate (IPBC)] | 85 ± 2.4 | 86.1 ± 2.2
19 | Cc1cnc(NC(=O)C2=C(O)c3ccccc3S(=O)(=O)N2C)s1 [Meloxicam] + CCCCNC(=O)OCC#CI [3-iodo-2-propynyl butylcarbamate (IPBC)] | 63.4 ± 0.79 | 88.2 ± 0.1

Row | Structure (SMILES) | growth yield (40 h) [%] | growth yield (72 h) [%]
20 | CN1[C@@H]2CC[C@H]1C[C@@H](OC1c3ccccc3CCc3ccccc31)C2 [Deptropine citrate] + CCCCNC(=O)OCC#CI [3-iodo-2-propynyl butylcarbamate (IPBC)] | 63.9 ± 1.3 | 86.8 ± 1.1
21 | O=C(O)/C=C/c1ccc(Cn2ccnc2)cc1 [Ozagrel hydrochloride] + CCCCNC(=O)OCC#CI [3-iodo-2-propynyl butylcarbamate (IPBC)] | 105 ± 12 | 103 ± 8.7
22 | CCCc1nc(C)c2c(=O)nc(-c3cc(S(=O)(=O)N4CCN(CC)CC4)ccc3OCC)[nH]n12 [Vardenafil] + CCCCNC(=O)OCC#CI [3-iodo-2-propynyl butylcarbamate (IPBC)] | 94.7 ± 4.8 | 97.6 ± 1.8
23 | CCn1nc(C(=O)O)c(=O)c2cc3c(cc21)OCO3 [Cinoxacin] + CCCCNC(=O)OCC#CI [3-iodo-2-propynyl butylcarbamate (IPBC)] | 93.7 ± 3.5 | 94 ± 1.5
24 | COCCOC(=O)C1=C(C)NC(C)=C(C(=O)OC/C=C/c2ccccc2)C1c1cccc([N+](=O)[O-])c1 (stereo unspecified) [Cilnidipine] + CCCCNC(=O)OCC#CI [3-iodo-2-propynyl butylcarbamate (IPBC)] | 95.78 ± 0.48 | 96.5
25 | O=C(NCCO[N+](=O)[O-])c1cccnc1 [Nicorandil] + CCCCNC(=O)OCC#CI [3-iodo-2-propynyl butylcarbamate (IPBC)] | 85.5 ± 1.9 | 92.9 ± 2.9
26 | C=C1/C(=C\C=C2/CCC[C@]3(C)[C@@H]([C@H](C)/C=C/[C@@H](O)C4CC4)CC[C@@H]23)C[C@@H](O)C[C@@H]1O [Calcipotriene] + CCCCNC(=O)OCC#CI [3-iodo-2-propynyl butylcarbamate (IPBC)] | 110.2 ± 0.64 | 108
27 | COC(=O)Nc1nc2ccc(SC(C)C)cc2[nH]1 [Methiazole] + CCCCNC(=O)OCC#CI [3-iodo-2-propynyl butylcarbamate (IPBC)] | 67.7 ± 20 | 89.4 ± 12
28 | CN(C)CCOc1ccc(/C(=C(/CCCl)c2ccccc2)c2ccccc2)cc1 [Toremifene] + CCCCNC(=O)OCC#CI [3-iodo-2-propynyl butylcarbamate (IPBC)] | 3.49 ± 0.95 | 3.15 ± 0.42
29 | CCN1CCN(C(=O)N[C@@H](C(=O)N[C@@H]2C(=O)N3C(C(=O)O)=C(CSc4nnnn4C)CS[C@H]23)c2ccc(O)cc2)C(=O)C1=O [Cefoperazone dihydrate] + CCCCNC(=O)OCC#CI [3-iodo-2-propynyl butylcarbamate (IPBC)] | 98.6 ± 3 | 98.3 ± 1.1
30 | CC1=Nc2ccc(Cl)cc2S(=O)(=O)N1 [Diazoxide] + CCCCNC(=O)OCC#CI [3-iodo-2-propynyl butylcarbamate (IPBC)] | 97.4 ± 4 | 100.8 ± 0.94
31 | Oc1ccc(OCc2ccccc2)cc1 [Monobenzone] + CCCCNC(=O)OCC#CI [3-iodo-2-propynyl butylcarbamate (IPBC)] | 50.7 ± 6.5 | 63 ± 4.3
32 | C[C@H]1C[C@H]2[C@@H]3CCC4=CC(=O)C=C[C@]4(C)[C@@]3(F)[C@@H](O)C[C@]2(C)[C@@]1(O)C(=O)CO [Betamethasone] + CCCCNC(=O)OCC#CI [3-iodo-2-propynyl butylcarbamate (IPBC)] | 99.8 ± 14 | 101 ± 7.3
33 | CCCCOC(=O)c1ccc(N)cc1 [Butamben] + CCCCNC(=O)OCC#CI [3-iodo-2-propynyl butylcarbamate (IPBC)] | 53.53 ± 0.16 | 70.7 ± 3.4
34 | CCCC(C)(COC(N)=O)COC(=O)NC(C)C (stereo unspecified) [Carisoprodol] + CCCCNC(=O)OCC#CI [3-iodo-2-propynyl butylcarbamate (IPBC)] | 84.8 ± 5.1 | 92.7 ± 5.5
35 | CCC1(C)CC(=O)NC(=O)C1 [Bemegride] + CCCCNC(=O)OCC#CI [3-iodo-2-propynyl butylcarbamate (IPBC)] | 93.2 ± 1.4 | 95.86 ± 0.84
36 | N=C(N)NC(=O)c1nc(Cl)c(N)nc1N [Amiloride hydrochloride dihydrate] + CCCCNC(=O)OCC#CI [3-iodo-2-propynyl butylcarbamate (IPBC)] | 80.4 ± 2.9 | 88.8 ± 3.2
37 | O=C1NCN(c2ccccc2)C12CCN(CCCC(c1ccc(F)cc1)c1ccc(F)cc1)CC2 [Fluspirilen] + CCCCNC(=O)OCC#CI [3-iodo-2-propynyl butylcarbamate (IPBC)] | 99.4 ± 6.3 | 118 ± 4.2
38 | Cc1cc(C2CCCCC2)n(O)c(=O)c1 [Ciclopirox ethanolamine] + CCCCNC(=O)OCC#CI [3-iodo-2-propynyl butylcarbamate (IPBC)] | 3.49 ± 0.32 | 2.83 ± 0.32
